# Measured values from article PMC6919601, “Identification of Plasmodium dipeptidyl aminopeptidase allosteric inhibitors by high throughput screening” (PLoS ONE, 2019).
# Values joined by “and” are separate entries in the source; they are usually repeats but may differ in a detail not shown here. Identical values can stand only once. Hit rate of the full screen: of about 110,000 compounds, about 230 (0.21%) showed an effect of 50% or more. The list shows a part of the results.
# Molecular target: DPAP1 (Plasmodium falciparum, UniProt Q8IIJ9)
# Sequence (Q8IIJ9 whole entry, looked up): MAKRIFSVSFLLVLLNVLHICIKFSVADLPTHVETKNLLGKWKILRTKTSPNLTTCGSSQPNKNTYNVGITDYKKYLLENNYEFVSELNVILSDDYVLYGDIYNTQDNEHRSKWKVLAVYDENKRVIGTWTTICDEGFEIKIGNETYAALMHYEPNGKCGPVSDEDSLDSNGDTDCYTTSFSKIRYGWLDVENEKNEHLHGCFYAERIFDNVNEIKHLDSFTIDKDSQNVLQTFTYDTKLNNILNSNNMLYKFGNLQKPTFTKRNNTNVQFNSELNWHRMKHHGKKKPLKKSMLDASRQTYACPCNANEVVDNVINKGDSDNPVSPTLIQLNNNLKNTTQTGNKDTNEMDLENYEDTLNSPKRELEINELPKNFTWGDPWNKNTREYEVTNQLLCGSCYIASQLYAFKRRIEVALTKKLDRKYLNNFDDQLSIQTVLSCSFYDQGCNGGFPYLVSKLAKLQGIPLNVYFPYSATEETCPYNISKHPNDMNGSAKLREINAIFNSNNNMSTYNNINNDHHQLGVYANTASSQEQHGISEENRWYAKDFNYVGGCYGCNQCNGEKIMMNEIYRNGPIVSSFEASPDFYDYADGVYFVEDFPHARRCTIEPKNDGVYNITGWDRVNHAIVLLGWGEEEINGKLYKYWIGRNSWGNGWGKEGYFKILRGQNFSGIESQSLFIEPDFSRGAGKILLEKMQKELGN
# Experiment: primary screen, percent inhibition; read by cleavage of a fluorogenic dipeptide substrate; higher = more effect of the substance
# Parameters: species or system P. falciparum D10 trophozoite lysates; single well
# 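Further: 30 min substrate incubation versus DMSO and 10 µM JCP410 controls.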
row,SMILES,% Inhibition @ 10 uM
1,CC(NC(=O)c1ccc(F)cc1)c1nc2ccccc2n1C (centres unmarked),4.02%
2,COC(=O)c1ccc(Cn2cnc3c(cnn3-c3ccc(C)c(C)c3)c2=O)o1,-1.75%
3,COc1ccccc1C(=O)Nc1c(C(=O)N2CCN(C(=O)c3ccco3)CC2)oc2ccccc12,-9.61%
4,O=c1oc(-c2ccncc2)nc2sc3c(c12)CCCCC3,-6.08%
5,CCOC(=O)c1ccc(Oc2nc(N3CCOCC3)nc(N3CCOCC3)n2)cc1,0.401%
6,O=c1c2ccccc2ncn1Cc1cccc2ccccc12,-1.22%
7,O=C(O)c1cnc(N2CCOCC2)nc1C1CCNCC1,-4.69%
8,COC(=O)c1sccc1NC(=O)c1nn(C)c2c1COc1ccccc1-2,-1.72%
9,CCOC(=O)c1c2n(c3cc(Cl)ccc3c1=O)CCC2,2.47%
10,CCOc1ccc(Nc2nc(C(F)(F)F)c(-c3ccccc3)s2)cc1,-1.74%
11,Cc1ccc(NC(=O)Cn2cc(CO)c3ccccc32)cc1,-2.29%
12,Cc1cc(C)nc(NC(=O)NS(=O)(=O)Nc2ccc(-c3ccccc3)cc2)n1,-0.999%
13,CCCCSCc1cc(C(=O)O)oc1C(C)(C)C,2.98%
14,CS(=O)(=O)N(CC(=O)Nc1ccccc1)c1cccc(F)c1,-10.1%
15,CCOC(=O)c1c(S(=O)(=O)NCC2CCCO2)c(C)n(C)c1C (centres unmarked),-2.44%
16,CCCCc1ccc(C2C3=C(O)CC(C)(C)CC3=NC(C)=C2C(=O)OCC)s1 (centres unmarked),0.215%
17,O=C(O)c1cc(N2C(=O)C3CCCCC3C2=O)ccc1Cl (centres unmarked),-2.78%
18,CC(=O)Nc1cccc(NC(=O)c2ccc(Br)cc2)c1,-0.0404%
19,COc1cc(C2C(C#N)=C(N)OC3=C2C(=O)CCC3)cc(OC)c1OC (centres unmarked),0.687%
20,Cc1oc2cc(OC(C)C)ccc2c(=O)c1Oc1ccccc1F,-6.24%
21,CC(C)(C)C1CC(O)CN(C(C)(C)C)C1 (centres unmarked),-8.04%
22,c1coc(CNC2CCc3ccccc3C2)c1 (centres unmarked),3.19%
23,CC1=C(c2ccc(C)cc2)S(=O)(=O)N=C1NCCCN1CCN(Cc2ccccc2)CC1,2.27%
24,CC1=C(C(=O)OCCc2ccccc2)C(c2cccnc2)C2=C(O)CC(c3ccccc3)CC2=N1 (centres unmarked),11.9%
25,NCCc1nc2ccccc2[nH]1,4.52% and -1.29%
26,CCN(CC)C(=O)C1CCCN(Cc2ccc(F)cc2F)C1 (centres unmarked),-7.49%

row,SMILES,% Inhibition @ 10 uM
1,CC1CCN(c2ccc3nnc(CCC(=O)N4CCN(C)CC4)n3n2)CC1,0.842%
2,O=C(Nc1ccc(OC(F)(F)F)cc1)c1ccc(-c2ccccc2)cc1,1.26%
3,CC(=O)Nc1ccc(N2C(=O)CC(N3CCN(c4ccccc4)CC3)C2=O)cc1 (centres unmarked),3.89%
4,CC(C)NCC1(O)CCC2C3CCC4CC(O)CCC4(C)C3CCC21C (centres unmarked),5.04%
5,CCCC1=C(C(=O)OCC)C(c2cccc3ccccc23)C(C#N)=C(N)O1 (centres unmarked),-2.22%
6,CC(C)NCc1nc2ccccc2c(=O)n1-c1ccc(F)cc1,3.58%
7,CC(C)c1ccc(S(=O)(=O)N2CCN(S(=O)(=O)c3ccc(C(C)C)cc3)C(C)C2)cc1 (centres unmarked),-1.95%
8,CCOC(=O)N1CCC(NCc2ccc(F)cc2)CC1,-0.0908%
9,CCCCN(C1CCS(=O)(=O)C1)S(=O)(=O)c1ccc(Cl)cc1 (centres unmarked),-4.78%
10,CSc1nc(O)c2c3c(sc2n1)COC(C)(C)C3,0.392%
11,CCCCOC(=O)NS(=O)(=O)c1ccccc1,-9.32%
12,Cc1ccc2oc(-c3ccccc3F)c(O)c(=O)c2c1,4.96%
13,CC1CCN(C(=O)c2cc3oc4ccccc4c3n2C)CC1,4.55%
14,CC1CCCC(NC(=O)c2nn(C)c3c2CS(=O)(=O)c2ccccc2-3)C1C (centres unmarked),3.71%
15,COc1ccc(C2CC(=O)C(/C=N/CCCO)=C(O)C2)cc1 (centres unmarked),-1.06%
16,CCCNC(=O)c1cc(-c2ccc(Cl)cc2)[nH]n1,-2.93%
17,CC(=O)Nc1cccc(NC(=O)c2ccc(C)cc2)c1,1.43%
18,CC1(C)CCc2c(nc3ccccc3c2O)O1,4.28%
19,N#C/C(=C\Nc1ccccc1Cl)c1nc2ccccc2o1,4.39%
20,CC(CCc1ccccc1)N1CCCC1CO (centres unmarked),-11.1%
21,O=S(=O)(Cc1ccccc1)c1nc2ccccc2n1Cc1ccccc1F,-0.0735%
22,Cn1cc(S(=O)(=O)N2CCCC2)cc1C(=O)NCCCN1CCN(C2CCCCC2)CC1,-0.361%
23,O=C1c2ccccc2C(=O)N1CNCc1cc(O)nc(O)n1,-6.25%
24,Cc1ccc(-c2nc(CS(=O)CC(=O)NCCC(C)C)c(C)o2)cc1 (centres unmarked),-6.64%
25,Cc1ccc(C(=O)c2sc3nc4c(cc3c2N)CCC4)c(C)c1,2.7%
26,COCCNC(=O)c1cc(-c2ccco2)on1,-1.29%

row,SMILES,% Inhibition @ 10 uM
1,Cc1ccc2cc3cc(C(=O)NCc4ccc5c(c4)OCO5)sc3nc2c1,-2.99%
2,CCOc1ccc2nc(Nc3nc(O)c4c(n3)CCC4)nc(C)c2c1,3.09%
3,Cc1ccc(CNC(=O)CSc2nc3ccccc3c3nc(C)nn23)cc1,1.74%
4,COc1ccc(NC(=O)c2cccc(S(=O)(=O)NCc3ccccc3)c2)cc1,1.64%
5,c1cncc(-c2nc3c4c5c(sc4ncn3n2)CCCCC5)c1,6.52%
6,CN(Cc1ccccc1)C(=O)Cn1nc(-c2ccc(Cl)cc2)ccc1=O,1.62%
7,CCc1cccc(NC(=O)c2ccc(OC)cc2)c1,9.41%
8,CCOCCCNC(=O)CCn1nc(-c2ccc(Cl)cc2)ccc1=O,-1.79%
9,C=Cc1ccc(Cn2c(C(=O)O)c(CNCc3ccco3)c3ccc(C)cc32)cc1,2.96%
10,O=C(NCCC1=CCCCC1)C1CCN(S(=O)(=O)c2cccc3nsnc23)CC1,-3.35%
11,COc1ccccc1C1C2=C(O)CCCC2=NC(C)=C1C(=O)Nc1cccc(C)n1 (centres unmarked),-10.4%
12,COc1ccc(NC(=O)C2=C(C)NC(=O)NC2c2ccc(OC)cc2)cc1 (centres unmarked),9.5%
13,COc1cc(O)c2c(c1N)C(=O)c1ccccc1C2=O,-4.31%
14,Cc1csc(NC(=O)C2CCCN(S(=O)(=O)c3ccc(Br)s3)C2)n1 (centres unmarked),-3.21%
15,O=C(CC1CC2CCC1C2)N1CCN(S(=O)(=O)c2ccc(F)cc2)CC1 (centres unmarked),1.88%
16,COC(=O)Nc1nc(-c2ccc3ccccc3c2)cs1,-3.72%
17,COc1ccc(-c2c(C(=O)O)c3cc(OC)c(OC)cc3c(=O)n2C)cc1O,3.54%
18,Cc1ccc2oc(=O)c3cnn(CC(=O)NC4CCCc5ccccc54)c3c2c1 (centres unmarked),3.2%
19,Cc1ccc(C(=O)CSc2n[nH]c(-c3ccco3)n2)cc1C,-3.4%
20,CCOCCCNC(=O)CCc1ccc(-n2cnc3cccnc32)cc1,-5.92%
21,COCCn1c2c(c(=O)[nH]c1=O)C(c1ccc(C(C)C)cc1)C1=C(O)c3ccccc3C1=N2 (centres unmarked),0.778%
22,O=C1N/C(=C/c2ccc(Br)s2)C(=O)N1Cc1ccc(Cl)cc1,1.84%
23,CN(C)c1nc(NC(C)(C)C)nc(Oc2ccc(O)nn2)n1,0.778%
24,Cc1ccc(CNCc2c(C(=O)O)c(C)n(Cc3ccccc3C)c2C)o1,-0.23%
25,O=C(c1csc2ccccc12)N1CCN(c2ccccn2)CC1,-4.65%
26,COCCN(CCOC)c1ncnc2c1c(-c1ccccc1)cn2-c1cccc(C)c1,1.58%

row,SMILES,% Inhibition @ 10 uM
1,CC(C)CN(CC(C)C)S(=O)(=O)N1CCC(C(=O)NC(C)C)CC1,3.79%
2,Cc1nnc2c3nnc(C)n3c3cc(Cl)ccc3n12,3%
3,FC(F)c1cc(-c2ccccc2)[nH]n1,-3.63%
4,O=C1OC(c2ccccc2F)=N/C1=C\c1cc(Br)cs1,0.607%
5,Cc1cccc2c1cnn2C(=O)CCC(=O)N1CCC(C)CC1,0.0198%
6,O=C(O)CSc1c2c(nc3cc(C(=O)NCc4ccc(F)cc4)ccc13)CCCC2,5.21%
7,COc1ccc(NC(=N)Nc2nc(O)c3c(n2)CCCC3)cc1,-2.98%
8,c1ccc2c(N3CCCC3)nc(N3CCCC3)nc2c1,-10.8%
9,CC(=O)c1ccc(Oc2ccc(N)cc2)cc1,-4.35%
10,CCCCN(CC)CCNC(=O)c1cc2c(-c3ccccc3F)nn(C)c2s1,-5.1%
11,COc1cc(OC)c(OC)cc1/C=C1\N=C(c2ccc(OC)c(OC)c2)OC1=O,-2.9%
12,O=C(C1CCN(S(=O)(=O)N2CCOCC2)CC1)N1CCC2(CC1)OCCO2,3.66%
13,CCOC(=O)C1=C(C)N(CCO)C(=O)NC1c1cc(Cl)cc(Cl)c1OC (centres unmarked),-1.24%
14,CCOC(=O)C1=C(CNC(C)CCc2ccccc2)NC(=O)NC1c1ccccc1 (centres unmarked),-1.3%
15,O=C(NCC1CCCO1)c1cc2nc(-c3ccc4c(c3)OCO4)cc(C(F)(F)F)n2n1 (centres unmarked),4.07% and 0.907%
16,Cn1c(=O)c2c(ncn2CC(=O)Nc2ccc(OCc3ccccc3)cc2)n(C)c1=O,-5.15%
17,O=C1OC(c2ccco2)=N/C1=C\c1ccc2c(c1)OCO2,-3.15%
18,C#CCOc1cccc(C2C3=C(CC(C)(C)CC3=O)N(C)C3=C2C(=O)CC(C)(C)C3)c1,-7.23%
19,Cc1ccc(S(=O)(=O)N2CCN(c3ncnc4sc5c(c34)CCCC5)CC2)cc1,-10.8%
20,Cc1ccc(C)n1-c1nnc(N2CCC(C(=O)NC(C)CCc3ccccc3)CC2)s1 (centres unmarked),-0.522%
21,CC1CC(C)CN(CCCNC(=O)CN2C(=O)CSc3ncccc32)C1 (centres unmarked),1.03%
22,C/C(=C\c1ccccc1)CN1CCN(C=O)CC1,0.472%
23,Cc1ccc(-c2nnc(C3CCN(S(=O)(=O)c4cccc5nsnc45)CC3)o2)cc1,8.53%
